Biological target: human FLT3 (hFLT3) (human) (UniProt P36888)
Assay: SPR, Table 6, scFv format; set-up and antigen species not described

Chain of UniProt P36888 (P36888 27-543 limits assumed): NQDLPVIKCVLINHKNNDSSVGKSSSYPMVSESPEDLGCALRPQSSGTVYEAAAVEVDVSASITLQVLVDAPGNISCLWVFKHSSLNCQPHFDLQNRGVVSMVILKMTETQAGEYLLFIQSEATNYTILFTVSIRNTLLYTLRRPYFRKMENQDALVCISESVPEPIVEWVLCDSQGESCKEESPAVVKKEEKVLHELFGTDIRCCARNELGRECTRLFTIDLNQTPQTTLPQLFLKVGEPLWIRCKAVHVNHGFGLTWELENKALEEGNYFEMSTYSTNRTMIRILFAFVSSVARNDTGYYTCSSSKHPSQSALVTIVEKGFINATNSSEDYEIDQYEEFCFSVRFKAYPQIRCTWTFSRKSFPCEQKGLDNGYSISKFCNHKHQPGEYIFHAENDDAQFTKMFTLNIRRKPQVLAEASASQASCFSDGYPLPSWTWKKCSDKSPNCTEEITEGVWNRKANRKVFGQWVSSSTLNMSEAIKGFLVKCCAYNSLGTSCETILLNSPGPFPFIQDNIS

Kd: 0.0151 µM | koff: 0.00199 s⁻¹ | t1/2: 5.8 min
B1: P4F6 (scFv format) (scFv, part only; not given: linker, domain order, tags, V domains shown, not shown: another chain or arm of the molecule; small tags and cut ends)
VH: QVQLVQSGAEVKKPGSSVKVSCKASGGTFGSYGISWVRQAPGQGLEWMGGIIPIFGTVTYAQKFQGRVTITADESTRTAYMELSSLRSEDTAVYYCARDSWSGATGASDTWGQGTLVTVSS
VL: [about 100 residues omitted here]RTFGQGTKVEIK

Reference: patent publication US20230059489A1
